From PubChem BioAssay AID485344 (National Center for Advancing Translational Sciences (NCATS), 2010)
“And” between values parts separate entries of the source, which are not always exact repeats. Identical values can stand only once. Hit rate of the full screen: of about 340,000 compounds, about 6,900 (2%) were called active. Rule as the data show it: active = inhibition above about 30%; inactive = below that, where a call was filed. This is a selection; strong and weak results do not stand in their true shares. Where no call is shown, the source filed none.

Target: D(2) dopamine receptor (Homo sapiens) (UniProt P14416)
Experiment: HTS Assay for Allosteric Antagonists of the Human D2 Dopamine Receptor: Primary Screen for Antagonists; also: 0% is about no effect
Conditions: HEK293 TREx D2 cells, calcium flux, dopamine EC80; at 10 µM; stronger effect = higher value
How it was run: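 Tetracycline-induced HEK293 T-REx cells expressing D2 force-coupled to calcium signalling were dye-loaded, exposed to compound for 180 s, then challenged with an EC80 of dopamine; calcium flux was followed kinetically for a further 180 s.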

Sequence of UniProt P14416 (P14416 whole entry, looked up): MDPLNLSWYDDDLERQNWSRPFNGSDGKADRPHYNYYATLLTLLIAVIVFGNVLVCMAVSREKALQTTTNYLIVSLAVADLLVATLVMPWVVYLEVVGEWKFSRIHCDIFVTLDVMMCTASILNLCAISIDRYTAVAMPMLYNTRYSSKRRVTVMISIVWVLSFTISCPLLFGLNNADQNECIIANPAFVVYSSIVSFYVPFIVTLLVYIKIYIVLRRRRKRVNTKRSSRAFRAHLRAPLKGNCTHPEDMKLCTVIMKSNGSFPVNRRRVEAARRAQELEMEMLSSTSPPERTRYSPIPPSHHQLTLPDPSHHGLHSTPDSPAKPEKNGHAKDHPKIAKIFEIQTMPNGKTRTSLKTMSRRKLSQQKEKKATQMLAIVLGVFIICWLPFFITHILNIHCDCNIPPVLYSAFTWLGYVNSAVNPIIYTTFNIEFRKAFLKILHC

| Compound | inhibition |
| --- | --- |
| CC(C)CCNC(=O)c1nn(C)c2c1CSc1ccccc1-2 | 27% |
| COC(=O)c1c(-c2cccs2)csc1NC(=O)c1cc(OC)c(OC)c(OC)c1 | -0.059% |
| CCOc1cc2[nH]c(=O)n(CCCC(=O)NCc3ccc(OC)cc3)c(=O)c2cc1OCC | 9.99% |
| COc1ccc(-n2ccn(CC(=O)Nc3ccc(C)c(C)c3)c(=O)c2=O)cc1OC | -11% |
| Cc1ccc(F)cc1NC(=O)CCSc1nc(-c2ccco2)cc(C(F)(F)F)n1 | 6.89% |
| CC1CCCN(S(=O)(=O)c2cc(C(=O)NCc3ccccc3Cl)n(C)c2)C1 (stereo unspecified) | 11.8% |
| Cc1ccc(NC(=O)C(=O)NCC(c2cccnc2)N2CCc3ccccc3C2)cc1 (stereo unspecified) | 4.24% |
| C=Cc1ccc(Cn2c(C(=O)O)c(CNCc3ccccc3)c3ccc(OC)cc32)cc1 | -4.25% |
| CCc1ccc(Nc2sc(C(=O)c3ccccc3)c(N)c2S(C)(=O)=O)cc1 | -1.77% |
| Cc1ccc(CSc2nc(-c3ccc(C(C)(C)C)cc3)nc3cc(=O)[nH]n23)cc1 | -3.2% |
| CCOCCc1nn2c(=O)cc(COC(=O)CNC(=O)c3ccc(F)cc3)nc2s1 | 1.28% |
| CCOc1ccc(CC(=O)NCCc2csc(-c3ccc(Cl)cc3)n2)cc1 | -13.2% |
| COc1cc(C(CC(=O)Nc2cc(C)ccc2C)N2Cc3ccccc3C2=O)cc(OC)c1OC (stereo unspecified) | 0.587% |
| CN(Cc1ccccc1)C(=O)c1cccc(NC(=O)c2nsc3ccccc23)c1 | -6.9% |
| CN(CCCOc1ccccc1Br)Cc1ccccc1 | active: 38.5% |
| CC(=O)c1ccc(NC(c2ccc(F)cc2)c2nnc(-c3ccccc3)o2)cc1 (stereo unspecified) | 15.8% |
| CC(C)(C)OC(=O)N1CCC(c2c(C(=O)N3CCN(c4ccccn4)CC3)cnn2-c2ccccc2Cl)CC1 | -1.24% |
| CCOCCCNC(=O)c1cn(CC)c2ccc(S(=O)(=O)N3CCc4ccccc4C3)cc2c1=O | 7.83% |
| CCOC(=O)c1[nH]c(C)c(CCC(=O)N2CCN(c3cccc(C)c3C)CC2)c1C | 6.71% |
| Cc1ccc2nc(-c3ccncc3)c(Nc3ccc(C(C)C)cc3)n2c1 | -1.14% |
| Cc1ccc(CN2CCC(C(=O)NCCC(C)C)CC2)o1 | active: 30.1% |
| O=C(NCc1ccc(F)cc1)C1CCN(c2ncnc3c2nc2n3CCCCC2)CC1 | 12.5% |
| COc1ccc(CNC(=O)c2ccc3c(c2)N(Cc2ccccc2C)C(=O)c2ccccc2S3=O)cc1 (stereo unspecified) | 7.48% |
| COc1ccc(CNc2oc(/C=C/c3cccc(OC)c3)nc2C#N)cc1 | 0.71% |

| Compound | inhibition |
| --- | --- |
| CCN1C(=O)C(CC(=O)Nc2ccc(OC)cc2)N(CCCN2CCN(c3ccc(F)cc3)CC2)C1=S (stereo unspecified) | active: 57.4% |
| COc1ccc(OC)c(CNC(=O)c2c(C)oc3ncn(C)c(=O)c23)c1 | 5.66% |
| O=C(c1ccc2c(c1)CCN2S(=O)(=O)c1ccc(Cl)cc1)N1CCN(c2ccccc2)CC1 | -5.85% |
| CCOc1ccc(CN2C(=O)c3ccccc3Sc3ccc(C(=O)OC)cc32)cc1 | 9.26% |
| COc1ccc(N2CC(NC(=O)c3ccco3)CC2=O)cc1OC (stereo unspecified) | -5.82% |
| O=S(=O)(Nn1cnnc1)c1ccccc1Cl | active: 30.4% |
| CCn1c(SCc2ccc(F)cc2Cl)nc(=O)c2c(C(=O)OC)cc(C3CC3)nc21 | 8.73% |
| Cc1ccc(CNC(=O)c2cc(-c3ccc(C)cc3)nc3n[nH]c(-c4ccc(F)cc4)c23)cc1 | 21.1% |
| CCOC(=O)C1CCN(S(=O)(=O)c2ccc(N3CCCCS3(=O)=O)cc2)CC1 | -2.14% |
| COc1ccc(OCC2c3cc(OC)c(OC)cc3CCN2C(=O)COc2ccc(Cl)cc2Cl)cc1 (stereo unspecified) | -2.28% |
| CC(C)c1ccc2occ(CC(=O)Nc3ccccc3Cl)c2c1 | 2.31% |
| COc1ccc(Cn2ccc3nc(C)c(C(=O)N4CCN(c5ccccc5OC)CC4)cc3c2=O)cc1 | 12.3% |
| CC(C)NC(=O)C(c1ccccc1)N1Cc2ccccc2C1=O (stereo unspecified) | -4.44% |
| CC1=C(C(N)=O)C(c2cccc(C)c2)n2nc(-c3cccc(C)c3)nc2N1 (stereo unspecified) | 12.8% |
| Cc1ccc(C)c(NC(=O)Cn2c(=O)n(Cc3ccc4c(c3)OCO4)c(=O)c3oc4ccccc4c32)c1 | -12% |
| Cc1ccc(SCC(=O)OCC(=O)N(C)CC(=O)Nc2ccccc2Cl)cc1C | active: 33.3% |
| Cc1ccc(CSc2nnc(-n3c(=O)c(C#N)cc4c(=O)n5cc(C)ccc5nc43)s2)cc1 | 0.615% |
| COc1ccc(-c2noc(CSc3nc(C)cc(=O)[nH]3)n2)cc1OC | -0.39% |
| Cc1ccc(N(Cc2cc3ccccc3[nH]c2=O)C(=O)c2cccc(Cl)c2)cc1 | -6.91% |
| Cc1ccc(-c2cn3c(n2)sc2cc(C(=O)NCc4cccs4)ccc23)c(C)c1 | -13.9% |
| CC(=O)c1ccc(NC(=O)CC2Nc3cc(C)c(C)cc3NC2=O)cc1 (stereo unspecified) | 7.58% |
| Cc1ccccc1C(=O)NNc1ncnc2c1cnn2-c1cccc(Cl)c1 | -19.8% |
| O=C(COc1ccccc1F)NC1CCN(Cc2ccccc2)CC1 | active: 48.4% |
| CCOc1cc(CNC(=O)Cn2ncn3c(cc4cc(F)ccc43)c2=O)cc(OCC)c1OCC | 4.32% |

| Compound | inhibition |
| --- | --- |
| CCCc1ccc(NC(=O)C2CCCN(c3cnccn3)C2)cc1 (stereo unspecified) | -26.5% |
| CCOc1ccc(Nc2nc(C)c(NC(=O)c3cccc(F)c3)c(Nc3ccc(OCC)cc3)n2)cc1 | -12.4% |
| COc1cccc(-c2oc3ccc(C)cc3c(=O)c2O)c1 | -7.24% |
| CCC1Oc2ccc(C)cc2N(CC(=O)N2CCN(c3ccccc3OC)CC2)C1=O (stereo unspecified) | -1.43% |
| Cc1noc(C)c1S(=O)(=O)N(CC(=O)NCCc1ccc(Cl)cc1)c1ccc(C(C)C)cc1 | 12.7% |
| CCOc1ccc(CNC(=O)CN2N=C(c3ccccc3)CCC2=O)cc1OC | 10.6% |
| CCc1ccc(C2C(C(=O)Nc3ccccc3OC)=C(C)Nc3nc(SCc4ccccc4)nn32)cc1 (stereo unspecified) | 9.63% |
| Cc1ccc(-n2ncc(C(=O)NCCN3CCN(C)CC3)c2C2CCN(C(=O)OC(C)(C)C)CC2)cc1 | -4.23% |
| O=C(CSc1nc(N2CCOCC2)nc(N2CCOCC2)n1)Nc1ccc(Cl)cc1Cl | active: 33.1% |
| Cc1nc(C)c(-c2ccc(SCC(=O)Nc3cccc(C)c3C)nn2)s1 | 4.13% |
| Cn1c(C(=O)NCCc2ccccc2)cc2sc(Cl)cc21 | 12.9% |
| Cc1ccc(CNC(=O)CSc2nc3ccsc3c(=O)n2-c2ccc(Br)cc2)cc1 | 6.88% |
| CCOCCCn1c(SCC(=O)Nc2ccc(CC)cc2)nc2ccccc2c1=O | -20.9% |
| CN1CCN(c2cc(-c3ccccc3)nc3cc(-c4ccc(F)cc4)nn23)CC1 | active: 54.3% |
| COc1cc(NC(=O)Cn2ccc3ccccc3c2=O)cc(OC)c1OC | 2.72% |
| COc1ccc(C(=O)N(Cc2sccc2C)C2CCS(=O)(=O)C2)cc1 (stereo unspecified) | -5.26% and active: 37.8% |
| O=S(=O)(c1ccc(-c2csc(=Nc3ccc(F)cc3)n2CCCCCCO)cc1)N1CCCC1 | -17.6% |
| CCCc1nnc(NC(=O)Cc2coc3c(C)c(C)ccc23)s1 | -6.4% |
| COc1ccc(-c2c(C)[nH]n3c(=O)c(Cc4ccccc4)c(C)nc23)cc1OC | active: 34.9% |
| Cc1ccc(Cl)cc1N1CCN(S(=O)(=O)c2ccc3c(c2)C(C(C)C)C(=O)N3)CC1 (stereo unspecified) | -6.35% |
| O=C(Nc1ccc(Cl)cc1)c1ccc(-n2cnnc2)cc1 | -4.48% |
| O=C(COCc1cc(-c2cccs2)on1)NCc1ccc(F)cc1 | 6.56% |
| CC(C)c1ccc(NC(=O)C2CCCN2S(=O)(=O)c2ccc3nc(-c4ccccc4)[nH]c3c2)cc1 (stereo unspecified) | 9.28% |
| CCc1cc(=O)[nH]c(SCc2nc(-c3cccc(Cl)c3)no2)n1 | -9.83% |

| Compound | inhibition |
| --- | --- |
| Cc1ccc(-n2ncc3c(N4CCN(Cc5ccccc5)CC4)ncnc32)cc1Cl | -8.64% |
| Cc1ccc(Nc2c(-c3cccnc3)nc3ccc(Cl)cn23)cc1 | -12.4% |
| CC(NC(=O)CN(C)CC(=O)Nc1ccc(F)c(F)c1F)c1ccccc1 (stereo unspecified) | active: 49.4% |
| CCOc1ccccc1N1CCN(Cc2ccc(OC)c(OC)c2)CC1 | active: 94.4% |
| COc1ccc2cc(CCNS(=O)(=O)c3ccc(C)cc3)c(=O)[nH]c2c1 | -0.402% |
| CCOC(=O)C1CCN(C(=O)c2c(C)nn(-c3ccc(F)cc3)c2-n2cccc2)CC1 | -5.65% |
| OC(COc1cccc2ccccc12)CN1CCN(c2ccccc2)CC1 (stereo unspecified) | active: 65% |
| CCC(C)NC(=O)Cn1c(=O)n(-c2ccc(OC)c(OC)c2)c(=O)c2ccccc21 (stereo unspecified) | 16.4% |
| CCCc1cc(=O)oc2c(C)c3c(cc12)CN(CCc1ccc(Cl)cc1)CO3 | 1.43% |
| Cc1ccc2oc(-c3cc(NC(=O)CC(C)C)ccc3Cl)nc2c1 | 7.55% |
| Cc1ccc2c(c1)Cc1c(nc(-c3ccc(F)cc3)nc1SCC(=O)N1CCCCC1)O2 | -5.8% |
| CCS(=O)(=O)c1ccc2oc(Nc3ccc(OC)cc3)nc2c1 | active: 34% |
| CCOC(=O)c1c(C)[nH]c(C)c1S(=O)(=O)N1CCCC(C(=O)NCc2ccccc2Cl)C1 (stereo unspecified) | -4.01% |
| COc1ccccc1CNC(=O)CN(c1ccccc1OC)S(C)(=O)=O | 5.81% |
| COc1ccc(C(=O)Nc2nnc(S(=O)(=O)N(C)c3ccc(C)cc3)s2)cc1 | 13.8% |
| COc1ccc(C(=O)Nc2nnc(S(=O)(=O)N3CCN(c4ccc(F)cc4)CC3)s2)cc1 | -19.4% |
| CCc1ccccc1Nc1ncnc2c1cnn2-c1ccc(C)cc1C | 25.7% |
| COc1cccc(CNC(=O)c2cc3c(=O)n(Cc4cccnc4)ccc3nc2C)c1 | -2.79% |
| Cc1ccc(NC(=O)CSc2nc3c(sc4ccccc43)c(=O)n2CCCC(=O)NC2CCCC2)cc1C | -3.78% |
| CC(C)COc1ccc(C(=O)Nc2nnc(S(=O)(=O)N(C)Cc3ccco3)s2)cc1 | -22% |
| CCc1cccc(NC(c2ccccc2)c2nnc(-c3ccccc3F)o2)c1 (stereo unspecified) | -25.9% |
| CCOc1ccc(Br)cc1S(=O)(=O)N1CCC(C(=O)O)CC1 | active: 39.3% |
| CCOc1cc(CNC(=O)NC2COc3ccccc3C2)cc(OCC)c1OCC (stereo unspecified) | 8.38% |
| COc1ccc(OC)c(-c2csc(-c3c(N)c(C(=O)c4ccc(Cl)cc4)n4ccccc34)n2)c1 | -2.84% |
